These results are taken from PubChem BioAssay AID360 (National Center for Advancing Translational Sciences (NCATS), 2006).

Among all 48,000 compounds or so, about 550 (1.1%) were called active. Roughly 4% stayed inconclusive and do not appear here. No stated cut-off is given here; in the data, active means potency below about 15 µM; inconclusive means mostly about 16 µM to 33 µM; inactive means weaker than that. Some of the results follow. Where only a bound is given, the exact number is not on record here.
Potency means the concentration at half of the fitted maximal effect.

For the test, the target named is Lysosomal acid glucosylceramidase (Homo sapiens) (UniProt P04062). The experiment in a line: Glucocerebrosidase.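 Further: the screen sought inhibitors.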 Conditions: purified enzyme, resorufin glucoside fluorescence (screen aimed at inhibitors), 20 min. The essentials: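 Compounds titrated against 0.2 nM normal enzyme, 30 uM resorufin beta-D-glucopyranoside substrate, citrate/phosphate buffer with taurocholate and tween-20, pH 5.9. Reaction ran 20 min at room temperature; fluorescence (Ex 548/Em 600) gave AC50.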
UniProt P04062, sequence (P04062 whole entry, looked up): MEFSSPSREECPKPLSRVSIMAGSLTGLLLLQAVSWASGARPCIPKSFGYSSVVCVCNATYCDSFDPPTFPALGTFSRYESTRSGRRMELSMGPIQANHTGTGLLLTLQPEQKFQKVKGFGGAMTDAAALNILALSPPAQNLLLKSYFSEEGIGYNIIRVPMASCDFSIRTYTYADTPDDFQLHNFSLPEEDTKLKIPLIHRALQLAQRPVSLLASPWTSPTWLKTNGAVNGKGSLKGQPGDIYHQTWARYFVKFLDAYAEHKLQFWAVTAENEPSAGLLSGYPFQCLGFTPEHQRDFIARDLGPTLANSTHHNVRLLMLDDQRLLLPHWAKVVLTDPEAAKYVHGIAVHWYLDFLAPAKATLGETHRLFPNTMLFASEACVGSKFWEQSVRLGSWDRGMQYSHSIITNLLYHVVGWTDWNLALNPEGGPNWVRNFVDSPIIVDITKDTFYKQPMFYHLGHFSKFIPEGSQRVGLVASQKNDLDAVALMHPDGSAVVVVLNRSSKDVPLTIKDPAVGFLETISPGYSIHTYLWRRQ
`CCc1cccc(NC(=O)Cn2ncn3c(cc4ccccc43)c2=O)c1`: the Potency is inactive: > 76.9 µM.
The value for `CCOc1ccccc1-c1nc(-c2cc3ccccc3nc2OC)no1` was inactive: > 76.9 µM; that for `O=C(NC1CCN(C(=O)NCc2ccccc2)CC1)c1ccco1` was inactive: > 76.9 µM.
Turning to `COc1cc(CNc2ccc3[nH]c(=O)[nH]c3c2)ccc1OCC(=O)NC(C)(C)C`, the Potency was inactive: > 76.9 µM.
The value for `Cc1cccc(C(=O)c2ccccc2C(=O)O)c1O` was inactive: > 76.9 µM; that for `CCOC(=O)c1csc(NC(=O)CSc2nnnn2-c2ccc(OC)cc2)n1` was inactive: > 76.9 µM; that for `O=S1(=O)CC(N2CCCCC2)C(N2CCCCC2)C1` (centres undefined) was inactive: > 76.9 µM.
The value for `CCOC(=O)CSc1ncnc2c1cnn2-c1ccc(Cl)cc1` was inactive: > 76.9 µM; that for `Cc1ccccc1NC(=O)CSc1nc2c(c(-c3ccco3)c1C#N)CCCC2` was inactive: > 76.9 µM.
Take `O=C(CSc1nnc(CNC(=O)c2ccccc2F)o1)NCC1CCCO1` (centres undefined): the Potency was inactive: > 76.9 µM.
The value for `CCOC(=O)c1sc2ncn(C(C)C(=O)OC)c(=O)c2c1C` (centres undefined) was inactive: > 76.9 µM; that for `CCOC(=O)c1cc2c(=O)n3ccccc3nc2n(CCOC)c1=NC(=O)C(C)(C)C` was inactive: > 76.9 µM.
As for `O=C(CSc1nc2ccccc2c(=O)n1Cc1ccco1)NCc1ccco1`, the figure is inactive: > 76.9 µM; as for `Cc1nn(Cc2ccc(C(=O)Nc3ccc(C(=O)OC(C)C)cc3)o2)c(C)c1Cl`, inactive: > 76.9 µM; as for `O=C1c2oc3ccccc3c(=O)c2C(c2ccccn2)N1Cc1ccccc1` (centres undefined), inactive: > 76.9 µM.
As for `Cc1cc(NC(=O)Cc2cccs2)nn1CC(=O)NCc1ccco1`, the figure is inactive: > 76.9 µM.
Consider `COC(=O)CN(C)C1CC(=O)N(c2ccc(Cl)cc2)C1=O` (centres undefined), for which the Potency is inactive: > 76.9 µM.
As for `O=C(Cn1c(=O)[nH]c2ccsc2c1=O)NC1CCCCCC1`, the Potency was inactive: > 76.9 µM.
The value for `C=CCn1c(=N)n(CC(=O)OCC)c2ccccc21` was inactive: > 76.9 µM; that for `Cc1c(C(=O)Nc2ccccc2)oc2c1C(=O)CC(C)(C)C2` was inactive: > 76.9 µM; that for `CN1C(=O)OC2(C)CCc3ccccc3C12C` (centres undefined) was inactive: > 76.9 µM.
The value for `O=C(O)CCCC(=O)Nc1cccc(-c2nc3ccccc3[nH]2)c1` was inactive: > 76.9 µM; that for `CCN(Cc1ccccc1)C(=O)Cn1cnc2c1c(=O)n(C)c(=O)n2C` was inactive: > 76.9 µM; that for `CCOC(=O)N1CCN(CC(=O)c2ccc3c(c2)CCN3)CC1` was inactive: > 76.9 µM.
As for `COC(=O)c1cc(C(=O)OC)cc(N2C(=O)CC(Sc3nc(C)cc(C)n3)C2=O)c1` (centres undefined), the figure is inactive: > 76.9 µM.
`CC(=O)c1cc(OC(=O)c2ccncc2)ccc1OC(=O)c1ccncc1`: the Potency result is “inactive”.
Regarding `Cc1ccc(NCc2nnc(SCC(=O)N3CCc4ccccc43)n2C)cc1`, the Potency is inactive: > 76.9 µM.
As for `Cc1ccc(C(C(=O)NCc2ccc(F)cc2)N(C(=O)c2csnn2)C2CC2)o1` (centres undefined), the Potency was inactive: > 76.9 µM.
As for `COc1ccccc1S(=O)(=O)n1cc(Cc2ccccc2)c(N)n1`, the figure is inactive: > 76.9 µM; as for `O=[n+]1c2c(n([O-])c3cc(F)c(N4CCCC4)cc31)CCC2`, inactive: > 76.9 µM.
The value for `O=C(CSc1oc(-c2ccco2)nc1S(=O)(=O)c1ccc(Cl)cc1)NCC1CCCO1` (centres undefined) was inactive: > 76.9 µM.
Consider `CCCC1=C(C(=O)OCC)C(c2cc(Cl)cc(OC)c2OCC(=O)OCC)NC(=O)N1` (centres undefined), for which the Potency was inactive: > 76.9 µM.
Take `COc1cc(S(=O)(=O)N2CCN(C(=O)c3ccccc3F)CC2)c(OC)cc1NC(C)=O`: the Potency was inactive: > 76.9 µM.
Regarding `Cc1cc(=O)[nH]c(Nc2ccc(C(=O)OC(C)C)cc2)n1`, the Potency entry is “inactive”.
The value for `Cc1ccn2cc(-c3nonc3C)cc2c1` was inactive: > 76.9 µM; that for `COc1ccc2[nH]c(C)c(CN3CCCCC3)c(=O)c2c1` was inactive: > 76.9 µM; that for `O=c1[nH]c2cc3c(cc2cc1CN(CC1CCCO1)S(=O)(=O)c1ccc(Cl)cc1)OCCO3` (centres undefined) was inactive: > 76.9 µM.
`COc1ccc(-c2c(=O)n(OCc3ccccn3)c3ccccc3[n+]2[O-])cc1OC`: the Potency is inactive: > 76.9 µM.
Regarding `CCOC(=O)Cn1c(=NC(=O)CSC(C)=O)sc2cc(OC)ccc21`, the Potency is inactive: > 76.9 µM.
With `CC1(C)CC(=O)C(C=Nc2ccc(O)cc2)=C(O)C1`, the Potency is inactive: > 76.9 µM.
As to `CC(C)NC(=O)CCNS(=O)(=O)c1ccc(Br)cc1`, the Potency was inactive: > 76.9 µM.
As for `Cc1cc(-c2ccccc2)nc2[n+]1CCN2C`, the figure is inactive: > 76.9 µM; as for `c1ccc(-c2nc(-n3ccnc3)nc(-n3ccnc3)n2)cc1`, inactive: > 76.9 µM; as for `Cc1ccc(-c2nnn(CC(=O)N(CC(=O)NC3CCCC3)c3cnc4ccccc4c3)n2)o1`, inactive: > 76.9 µM.
The value for `CCC(C)(C(=O)NC1CCCCC1)N(Cc1ccco1)C(=O)CC1NC(=O)NC1=O` (centres undefined) was inactive: > 76.9 µM.
As for `O=C(OCC(=O)N1CCN(C(=O)c2ccco2)CC1)c1ccccc1OCc1ccccc1`, the figure is inactive: > 76.9 µM; as for `Cc1cc(NC(=O)CSc2nc(-c3cccs3)cc(C(F)(F)F)n2)no1`, inactive: > 76.9 µM; as for `CCC(C)(C(=O)NC1CCCC1)N(Cc1ccco1)C(=O)c1ccccn1` (centres undefined), inactive: > 76.9 µM.
Turning to `CCOc1ccc(NC(=O)C2CC(=O)NC(N3CCc4ccccc43)=N2)cc1` (centres undefined), the Potency is inactive: > 76.9 µM.
As for `O=C(c1ccco1)N1CCN(S(=O)(=O)c2ccc(F)cc2)CC1`, the Potency was inactive: > 76.9 µM.
For the compound `CC(CCc1ccccc1)NC(=O)c1ccc(Br)o1` (centres undefined), the Potency is inactive: > 76.9 µM.
Consider `C=CCn1c(NC(=O)c2ccccc2Cl)c(C#N)c2nc3ccccc3nc21`, for which the Potency is inactive: > 76.9 µM.
For the compound `O=C(C1CCCCC1)N(CCN1CCCC1)c1nc2ccccc2s1`, the Potency is inactive: > 76.9 µM.
For the compound `COCCn1c(SCC(=O)N2CCCCC2)nc2cccnc21`, the Potency is inactive: > 76.9 µM.
Consider `Cc1nnc2n1NC(c1ccc(Cl)cc1)C(C(=O)N(C)C1CCCCC1)S2` (centres undefined), for which the Potency is inactive: > 76.9 µM.
As for `Cc1cccc(-c2nnc(SCc3nc4ccccc4[nH]3)n2Cc2ccco2)c1`, the figure is inactive: > 76.9 µM; as for `Cc1ccc2c(c1)CC1(CN2C)C(=O)OC2(CCCCC2)OC1=O`, inactive: > 76.9 µM; as for `O=C1OCc2cc(NS(=O)(=O)c3cccs3)ccc21`, inactive: > 76.9 µM.
As for `CCn1c(=O)cc(N2CCCCC2)[nH]c1=O`, the figure is inactive: > 76.9 µM; as for `CCCC(=O)Nc1nnc(CC(=O)OCC)s1`, inactive: > 76.9 µM.
In the case of `CS(=O)(=O)Nc1ccccc1C(=O)Nc1ccc2c(c1)OCCO2`, the Potency is inactive: > 76.9 µM.
As for `O=C(Nc1cccc(-c2nnc(-c3ccccc3)o2)c1)C1CCCO1` (centres undefined), the figure is inactive: > 76.9 µM; as for `CC1Cn2c(nnc2-c2cccs2)S1` (centres undefined), inactive: > 76.9 µM; as for `COC(=O)C(CCSC)NC(=O)CNC(=O)C1CCCCC1` (centres undefined), inactive: > 76.9 µM.
As for `CCn1c(CCC(=O)Nc2nc3c(s2)CCCC3)nc2cc(S(=O)(=O)N(C)C)ccc21`, the figure is inactive: > 76.9 µM; as for `Cc1cc(NC(=O)CSc2nnc(-c3ccc(Cl)s3)o2)no1`, inactive: > 76.9 µM.
For `COc1ccc(CCC(=O)N2CCN(C3CCCCC3)CC2)cc1`, the Potency is inactive: > 76.9 µM.
As for `COc1ccc(C2NCCc3cc(OC)c(OC)cc32)cc1OC` (centres undefined), the figure is inactive: > 76.9 µM; as for `Nc1nc(Cn2nnc(-c3ccccc3F)n2)nc(N2CCOCC2)n1`, inactive: > 76.9 µM; as for `COc1ccc(N2CCCn3c2nc2c3c(=O)n(CCCc3ccccc3)c(=O)n2C)cc1`, inactive: > 76.9 µM.
As for `CCn1c(SCC(=O)NC2CCCCC2)nnc1-c1cccs1`, the figure is inactive: > 76.9 µM; as for `O=C(Nc1ccccc1C(=O)N1CCCC1)c1cccc(S(=O)(=O)N2CCCCC2)c1`, inactive: > 76.9 µM.
Turning to `O=C(CSc1c2c(nc3ccc(Cl)cc13)CCCC2)N1CCN(C(=O)c2ccco2)CC1`, the Potency is inactive: > 76.9 µM.
The value for `C#CCN(C#N)c1nc(NCC)nc(NC(C)C)n1` was inactive: > 76.9 µM; that for `CCN(CC)C(=O)c1cccc(-c2ccc(OC)cc2)c1` was inactive: > 76.9 µM; that for `O=C(NCc1cccnc1)c1ccc(CS(=O)(=O)c2ccc(Cl)cc2)o1` was inactive: > 76.9 µM.
For the compound `COc1ccc(N2CCN(C(=O)CSc3nc4c(c(=O)n(C)c(=O)n4C)n3C(C)C)CC2)cc1`, the Potency is inactive: > 76.9 µM.
The value for `CCCCCn1c(CN2CCN(c3cc(Cl)ccc3C)CC2)nc2c1c(=O)[nH]c(=O)n2C` was inactive: > 76.9 µM; that for `O=C(CCNS(=O)(=O)c1cccc2nonc12)NCCc1ccc(Cl)cc1` was inactive: > 76.9 µM.
As for `CCS(=O)(=O)N1CCCC(C(=O)NCCc2ccc(OC)c(OC)c2)C1` (centres undefined), the figure is inactive: > 76.9 µM; as for `Cc1cc(S(=O)(=O)N(Cc2ccc(F)cc2)CC2CCCO2)ccc1-n1cnnn1` (centres undefined), inactive: > 76.9 µM; as for `CCC(C)NC(=O)CSc1nc2ccccc2c(=O)n1CCCC(=O)NCC1CCCO1` (centres undefined), inactive: > 76.9 µM.
As for `COc1ccc(NC(=O)C2CCCN(C(=O)NC3CCCCC3)C2)cc1OC` (centres undefined), the Potency is inactive: > 76.9 µM.
As for `CC(=O)Nc1cccc2c1C(=O)NC2=O`, the figure is inactive: > 76.9 µM; as for `CCNc1nc(N)nc(Oc2ccc(OCC)nn2)n1`, inactive: > 76.9 µM; as for `O=C(NCC(c1cccnc1)N1CCN(c2ccccc2)CC1)c1ccc2c(c1)OCO2` (centres undefined), inactive: > 76.9 µM.
With `c1c2c(cc3sc(N4CCCCC4)nc13)OCCO2`, the Potency was inactive: > 76.9 µM.
As for `CCn1ncc(Br)c1C(=O)Nc1cc(C(=O)OC)ccc1C(=O)OC`, the figure is inactive: > 76.9 µM; as for `CC(C)N(C#N)c1nc(N2CCOCC2)nc(N2CCOCC2)n1`, inactive: > 76.9 µM.
